Screen size: about 3,200 compounds; about 110 (3.4%) showed an effect of 50% or more. The list shows a part of the results.
test system: T1, V. cholerae SAD30; set-up: species or system S. aureus MSSA476 (TSB) or V. cholerae SAD30 (LB); 384-well bacterial growth screen at 25 uM, OD600 relative to DMSO control; conditions: relative growth, OD600, LB; 25 µM; inhibitor
T1 construct: SAD30

How did the “% of control remaining” value turn out when `C=CC(=O)N1CCN(S(=O)(=O)CC)CC1` [3-D20, 1-[4-(ethanesulfonyl)piperazin-1-yl]prop-2-en-1-one] was run?
Its value is 105.852%.

Which “% of control remaining” value does the source give for `N#CC(=Cc1ccc(OC(F)F)cc1)C(=O)N1CCCCC1` [8-J20, 3-[4-(difluoromethoxy)phenyl]-2-(piperidine-1-carbonyl)prop-2-enenitrile] here?
The value was 68.5928%.

`C=CC(=O)N1CCC(C(=O)Nc2nc3cc(F)c(C)cc3s2)CC1` [2-K15, N-(5-fluoro-6-methyl-1,3-benzothiazol-2-yl)-1-(prop-2-enoyl)piperidine-4-carboxamide] was tested. Which “% of control remaining” value did it give?
Its value is 76.6091%.

With `COc1ccccc1NC(=O)C(C#N)=Cc1sccc1C` [9-P19, 2-cyano-N-(2-methoxyphenyl)-3-(3-methylthiophen-2-yl)prop-2-enamide] as the compound, how does the “% of control remaining” value read?
The value was 85.724%.

With `CC(C)NC(=O)C(C#N)=Cc1c(Cl)nc2ccccn12` [9-A11, 3-{2-chloroimidazo[1,2-a]pyridin-3-yl}-2-cyano-N-(propan-2-yl)prop-2-enamide] as the compound, how does the “% of control remaining” value read?
Its value is 91.8423%.

With `O=C(CCl)NCCc1ncc(F)cn1` [6-E19, 2-chloro-N-[2-(5-fluoropyrimidin-2-yl)ethyl]acetamide] as the compound, how does the “% of control remaining” value read?
The value was 92.5206%.

For `CC1CN(c2cccc(CN(C)C(=O)C(C)Cl)c2)S(=O)(=O)C1` (stereo not shown) [6-L18, 2-chloro-N-methyl-N-{[3-(4-methyl-1,1-dioxo-1lambda6,2-thiazolidin-2-yl)phenyl]methyl}propanamide], which “% of control remaining” value is on record?
Its value is 87.0604%.

For `NC(=O)CCN(C(=O)CCl)c1ccc(F)cc1` [5-C03, 3-[2-chloro-N-(4-fluorophenyl)acetamido]propanamide], which “% of control remaining” value is on record?
The value was 115.499%.

How did the “% of control remaining” value turn out when `Cc1ccc(C)c(C=C(C#N)C(=O)Nc2nccs2)c1` [9-N13, 2-cyano-3-(2,5-dimethylphenyl)-N-(1,3-thiazol-2-yl)prop-2-enamide] was run?
Its value is 98.2325%.

`O=C(NC1CC1)C1(C(=O)N2CCSSCC2)CCC1` [10-B21, N-cyclopropyl-1-(1,2,5-dithiazepane-5-carbonyl)cyclobutane-1-carboxamide] was tested. Which “% of control remaining” value did it give?
Its value is 104.89%.

How did the “% of control remaining” value turn out when `C=CC(=O)NCc1nnc2n1CCCCC2` [3-N07, N-({5H,6H,7H,8H,9H-[1,2,4]triazolo[4,3-a]azepin-3-yl}methyl)prop-2-enamide] was run?
The value was 97.7357%.

With `O=C(CCl)c1ccc(Cl)c(Cl)c1` [10-L16, 2-chloro-1-(3,4-dichlorophenyl)ethan-1-one] as the compound, how does the “% of control remaining” value read?
The value was 0%.

`COc1ccc(C=C(C#N)C(=O)NC(C)c2ccccc2)cc1O` (stereo not shown) [8-J18, 2-cyano-3-(3-hydroxy-4-methoxyphenyl)-N-(1-phenylethyl)prop-2-enamide] was tested. Which “% of control remaining” value did it give?
Its value is 69.6805%.

With `CC(Cl)C(=O)N1N=C(c2ccc(Cl)cc2)CC1c1ccco1` (stereo not shown) [5-H18, 2-chloro-1-[3-(4-chlorophenyl)-5-(furan-2-yl)-4,5-dihydro-1H-pyrazol-1-yl]propan-1-one] as the compound, how does the “% of control remaining” value read?
The value was 49.4273%.

`CSc1ccccc1NC(=O)CCl` [4-E11, 2-chloro-N-[2-(methylsulfanyl)phenyl]acetamide] was tested. Which “% of control remaining” value did it give?
The value was 92.3011%.

Which “% of control remaining” value does the source give for `COc1cc(C=C(C#N)C(=O)NC2CC2)cc(OC)c1O` [9-O19, 2-cyano-N-cyclopropyl-3-(4-hydroxy-3,5-dimethoxyphenyl)prop-2-enamide] here?
Its value is 92.2502%.

For `CC(=O)N1CCC(NC(=O)C(C)Cl)c2ccc(F)cc2C1` (stereo not shown) [7-I16, N-(2-acetyl-8-fluoro-2,3,4,5-tetrahydro-1H-2-benzazepin-5-yl)-2-chloropropanamide], which “% of control remaining” value is on record?
Its value is 81.8107%.

How did the “% of control remaining” value turn out when `O=CN1CCc2cc(C(=O)CCl)ccc21` [10-K20, 5-(2-chloroacetyl)-2,3-dihydro-1H-indole-1-carbaldehyde] was run?
The value was 27.1186%.

`Cc1cc(C(=O)CCl)c(C)n1-c1ccc(Cl)cc1` [10-H18, 2-chloro-1-[1-(4-chlorophenyl)-2,5-dimethyl-1H-pyrrol-3-yl]ethan-1-one] was tested. Which “% of control remaining” value did it give?
Its value is 103.331%.

Which “% of control remaining” value does the source give for `O=C(CCl)N(CC1=CCCOC1)Cc1ccccc1` [7-J20, N-benzyl-2-chloro-N-[(5,6-dihydro-2H-pyran-3-yl)methyl]acetamide] here?
The value was 80.6212%.

With `O=C(CCl)NCC(=O)N1CCC(Cc2ccccc2)CC1` [6-F04, N-[2-(4-benzylpiperidin-1-yl)-2-oxoethyl]-2-chloroacetamide] as the compound, how does the “% of control remaining” value read?
The value was 93.4307%.

How did the “% of control remaining” value turn out when `C=CC(=O)N1CCC(C(=O)Nc2cccc(-c3n[nH]c(C)n3)c2)CC1` [2-J09, N-[3-(5-methyl-1H-1,2,4-triazol-3-yl)phenyl]-1-(prop-2-enoyl)piperidine-4-carboxamide] was run?
Its value is 93.5926%.

Which “% of control remaining” value does the source give for `Cc1cc(C)c(NC(=O)C(C#N)=Cc2ccc(C)o2)c(C)c1` [9-I17, 2-cyano-3-(5-methylfuran-2-yl)-N-(2,4,6-trimethylphenyl)prop-2-enamide] here?
Its value is 87.7634%.

How did the “% of control remaining” value turn out when `O=C1C=CC(=O)N1CCCCO` [10-K07, 1-(4-hydroxybutyl)-2,5-dihydro-1H-pyrrole-2,5-dione] was run?
The value was 17.4557%.

For `C=CC(=O)N(Cc1cn2ccccc2n1)C1CC1` [3-J21, N-cyclopropyl-N-({imidazo[1,2-a]pyridin-2-yl}methyl)prop-2-enamide], which “% of control remaining” value is on record?
The value was 90.3253%.

With `CC(Cl)C(=O)NCC(C)c1nncn1C` (stereo not shown) [7-A07, 2-chloro-N-[2-(4-methyl-4H-1,2,4-triazol-3-yl)propyl]propanamide] as the compound, how does the “% of control remaining” value read?
Its value is 92.7804%.

How did the “% of control remaining” value turn out when `Cc1ccsc1C=C(C#N)C(=O)Nc1c(Cl)cccc1Cl` [8-D22, 2-cyano-N-(2,6-dichlorophenyl)-3-(3-methylthiophen-2-yl)prop-2-enamide] was run?
Its value is 74.1672%.

`C=CC(=O)NCCc1csc(-c2ccccc2)n1` [1-A13, N-[2-(2-phenyl-1,3-thiazol-4-yl)ethyl]prop-2-enamide] was tested. Which “% of control remaining” value did it give?
The value was 78.6248%.

How did the “% of control remaining” value turn out when `O=C(CCl)N[C@H]1CCCc2ccccc21` [6-I21, 2-chloro-N-[(1S)-1,2,3,4-tetrahydronaphthalen-1-yl]acetamide] was run?
The value was 100.711%.

How did the “% of control remaining” value turn out when `C=CC(=O)N(Cc1ccc(F)c(C)c1)CC1(O)CCSCC1` [2-E13, N-[(4-fluoro-3-methylphenyl)methyl]-N-[(4-hydroxythian-4-yl)methyl]prop-2-enamide] was run?
Its value is 82.4761%.

Which “% of control remaining” value does the source give for `COc1ccc(C(=O)CCl)cc1Cl` [10-D10, 2-chloro-1-(3-chloro-4-methoxyphenyl)ethan-1-one] here?
The value was 0.9351%.

For `Cl.O=C(CCl)Nc1cccc(CN2CCSCC2)c1` [5-J14, 2-chloro-N-{3-[(thiomorpholin-4-yl)methyl]phenyl}acetamide hydrochloride], which “% of control remaining” value is on record?
Its value is 96.3329%.

Which “% of control remaining” value does the source give for `CN(CC(=O)Nc1c(Cl)cccc1Cl)C(=O)CCl` [6-M05, 2-chloro-N-{[(2,6-dichlorophenyl)carbamoyl]methyl}-N-methylacetamide] here?
Its value is 94.9474%.

How did the “% of control remaining” value turn out when `C=CC(=O)N1CCC(C(=O)N(C)C(C)CC(N)=O)CC1` (stereo not shown) [2-K20, 3-{N-methyl-1-[1-(prop-2-enoyl)piperidin-4-yl]formamido}butanamide] was run?
Its value is 91.8942%.

How did the “% of control remaining” value turn out when `CC(C)n1ccnc1C(=O)CCl` [10-H10, 2-chloro-1-[1-(propan-2-yl)-1H-imidazol-2-yl]ethan-1-one] was run?
The value was 100.838%.

Which “% of control remaining” value does the source give for `C=CC(=O)NCc1ccccc1S(=O)(=O)NC(C)(C)C` [1-J03, N-{[2-(tert-butylsulfamoyl)phenyl]methyl}prop-2-enamide] here?
Its value is 97.7578%.

How did the “% of control remaining” value turn out when `C=CC(=O)N1CCC(C(=O)N(C)Cc2ccon2)CC1` [2-I14, N-methyl-N-[(1,2-oxazol-3-yl)methyl]-1-(prop-2-enoyl)piperidine-4-carboxamide] was run?
Its value is 86.7992%.

How did the “% of control remaining” value turn out when `C=CC(=O)NC1(C(N)=O)Cc2ccccc2C1` [2-D15, 2-(prop-2-enamido)-2,3-dihydro-1H-indene-2-carboxamide] was run?
The value was 88.8063%.

`Cc1cc(C)n(C2CN(C(=O)C(C)Cl)C2)n1` (stereo not shown) [7-F15, 2-chloro-1-[3-(3,5-dimethyl-1H-pyrazol-1-yl)azetidin-1-yl]propan-1-one] was tested. Which “% of control remaining” value did it give?
Its value is 78.7709%.

Which “% of control remaining” value does the source give for `C=CC(=O)Nc1c(OC)nc(Cl)nc1OC` [1-B14, N-(2-chloro-4,6-dimethoxypyrimidin-5-yl)prop-2-enamide] here?
Its value is 48.0864%.

With `C=CCNC(=O)C(C#N)=Cc1ccccc1OC` [9-H05, 2-cyano-3-(2-methoxyphenyl)-N-(prop-2-en-1-yl)prop-2-enamide] as the compound, how does the “% of control remaining” value read?
The value was 93.2019%.

`O=C(CCl)Nc1cc(Cl)c(Cl)cc1Cl` [4-B06, 2-chloro-N-(2,4,5-trichlorophenyl)acetamide] was tested. Which “% of control remaining” value did it give?
The value was 123.183%.

How did the “% of control remaining” value turn out when `Cc1ccc(F)cc1NC(=O)CCl` [4-O03, 2-chloro-N-(5-fluoro-2-methylphenyl)acetamide] was run?
The value was 106.103%.

Which “% of control remaining” value does the source give for `CC(Cl)C(=O)NC(C)c1ccns1` (stereo not shown) [6-P12, 2-chloro-N-[1-(1,2-thiazol-5-yl)ethyl]propanamide] here?
The value was 99.3459%.

For `C=CC(=O)NC1CC(C)Cc2cc(OC)ccc21` (stereo not shown) [3-L17, N-(6-methoxy-3-methyl-1,2,3,4-tetrahydronaphthalen-1-yl)prop-2-enamide], which “% of control remaining” value is on record?
The value was 87.3259%.

How did the “% of control remaining” value turn out when `N#CC(C(=O)CCl)c1nncn1-c1ccccc1` (stereo not shown) [10-L14, 4-chloro-3-oxo-2-(4-phenyl-4H-1,2,4-triazol-3-yl)butanenitrile] was run?
The value was 96.1621%.
